The values that follow come from the antibiotic and cytotoxicity screens of Wong et al. (2023).

In experiment [1] the test system is HSkMC (human skeletal muscle cells). In words: cytotoxicity call (relative viability < 0.9). Conditions: 10 µM.
Experiment [2] concerns HepG2. In words: cytotoxicity call (relative viability < 0.9). Conditions: 10 µM.
The test system of experiment [3] is S. aureus RN4220. In words: growth inhibition call (relative growth <= 0.2). The following applies: 50 µM.

The list shows a part of the results.

As to `CO[C@H]1CN(C)C(=O)c2cc(NC(=O)CC(F)(F)F)ccc2OC[C@@H](C)N(S(=O)(=O)c2cn(C)cn2)C[C@@H]1C`, the cytotoxicity call in experiment [1] and in experiment [2] was “inactive” each time. Besides, the growth inhibition call in experiment [3] is “inactive”.

As to `COc1ccc(S(=O)(=O)N(C)C[C@H]2Oc3ccc(NC(=O)NC(C)C)cc3C(=O)N([C@@H](C)CO)C[C@H]2C)cc1`, the cytotoxicity call in experiment [1] and in experiment [2] was “inactive” in each case. Further, the growth inhibition call in experiment [3] is “inactive”.

Consider `Cc1ccccc1S(=O)(=O)N1C[C@H](O)COC[C@H]2O[C@@H](CC(=O)N3CCN(C)CC3)CC[C@@H]21`, for which the cytotoxicity call in experiment [1] and in experiment [2] was “inactive” in each case. The growth inhibition call in experiment [3] was “inactive”.

For `CN(C)S(=O)(=O)c1ccc2c(c1)CCN2`, the cytotoxicity call in experiment [1] and in experiment [2] was “inactive” in each case. Moreover, the growth inhibition call in experiment [3] is “inactive”.

Regarding `Cc1noc(C)c1S(=O)(=O)N(C)C[C@@H]1Oc2ccc(NC(=O)CCCN(C)C)cc2C(=O)N([C@@H](C)CO)C[C@@H]1C`, the cytotoxicity call in experiment [1] and in experiment [2] was “inactive” in each case. Moreover, in experiment [3], the growth inhibition call was “inactive”.

Consider `C[C@@H]1CN([C@H](C)CO)S(=O)(=O)c2ccc(-c3cccnc3)cc2O[C@@H]1CN(C)C(=O)c1ccc2c(c1)OCO2`, for which the cytotoxicity call in experiment [1] and in experiment [2] was “inactive” each time. The growth inhibition call in experiment [3] was “inactive”.

In the case of `COc1ccc(Sc2ccc(N(C(=O)c3ccccc3Cl)C(=O)c3ccccc3Cl)cc2C#N)cc1`, the cytotoxicity call in experiment [1] is “inactive”. Moreover, the cytotoxicity call in experiment [2] is “active”. For the same compound, the growth inhibition call in experiment [3] is “inactive”.

Take `Cc1ccc(S(=O)(=O)N(C)C[C@H]2OCCCC[C@H](C)Oc3ccc(NC(=O)CCC(F)(F)F)cc3C(=O)N([C@@H](C)CO)C[C@@H]2C)cc1`: the cytotoxicity call in experiment [1] and in experiment [2] was “inactive” throughout. The growth inhibition call in experiment [3] was “inactive”.

As for `CC(C)NC(=O)Nc1ccc2c(c1)C(=O)N([C@H](C)CO)C[C@H](C)[C@@H](CN(C)C(=O)Nc1ccc(F)cc1)OCCCC[C@H](C)O2`, the cytotoxicity call in experiment [1] and in experiment [2] was “inactive” each time. Further, the growth inhibition call in experiment [3] is “inactive”.

On to `Cc1noc(C)c1NC(=O)Nc1ccc2c(c1)C(=O)N([C@@H](C)CO)C[C@H](C)[C@@H](CN(C)Cc1ccc(C(F)(F)F)cc1)OCCCC[C@@H](C)O2`, for which the cytotoxicity call in experiment [1] and in experiment [2] was “inactive” throughout. The growth inhibition call in experiment [3] is “inactive”.

With `C[C@H]1CCCCO[C@@H](CN(C)C(=O)C2CCCCC2)[C@@H](C)CN([C@@H](C)CO)C(=O)c2cc(NC(=O)Cc3ccccc3)ccc2O1`, the cytotoxicity call in experiment [1] and in experiment [2] was “inactive” each time. In experiment [3], the growth inhibition call was “inactive”.

Regarding `COc1ccc(NC(=O)Nc2ccc3c(c2)C(=O)N([C@H](C)CO)C[C@@H](C)[C@H](CN(C)Cc2ccc(C(=O)O)cc2)OCCCC[C@@H](C)O3)cc1`, the cytotoxicity call in experiment [1] and in experiment [2] was “inactive” in each case. The growth inhibition call in experiment [3] is “inactive”.

In the case of `N[C@](CC1c2ccccc2Oc2ccccc21)(C(=O)O)[C@H]1C[C@@H]1C(=O)O`, the cytotoxicity call in experiment [1] and in experiment [2] was “inactive” in each case. Besides, the growth inhibition call in experiment [3] is “inactive”.

Take `O=C(CCCCCCC(=O)Nc1ccc([C@H]2C[C@H](c3ccccc3)O[C@H](c3ccc(Oc4ccccc4)cc3)O2)cc1)NO`: in experiment [1], the cytotoxicity call was “active”. Besides, the cytotoxicity call in experiment [2] was “inactive”. For the same compound, the growth inhibition call in experiment [3] is “inactive”.

On to `C[C@H]1CN([C@@H](C)CO)C(=O)Cc2cc(NC(=O)Nc3ccc(C(F)(F)F)cc3)ccc2O[C@H]1CN(C)Cc1ccc(C(=O)O)cc1`, for which the cytotoxicity call in experiment [1] and in experiment [2] was “inactive” each time. In experiment [3], the growth inhibition call is “inactive”.

On to `COc1cccc(S(=O)(=O)N2C[C@@H](O)COC[C@H]3O[C@H](CC(=O)N4CCOCC4)CC[C@@H]32)c1`, for which the cytotoxicity call in experiment [1] and in experiment [2] was “inactive” in each case. Also, in experiment [3], the growth inhibition call was “inactive”.

Consider `CCCN(C)C[C@H]1OCCCC[C@@H](C)Oc2ccc(NC(=O)C3CCCCC3)cc2C(=O)N([C@@H](C)CO)C[C@H]1C`, for which the cytotoxicity call in experiment [1] and in experiment [2] was “inactive” throughout. Moreover, the growth inhibition call in experiment [3] was “inactive”.

For `C[C@H](CO)N1C[C@H](C)[C@H](CN(C)S(=O)(=O)c2cccs2)Oc2ncc(C#Cc3cccc(F)c3)cc2C1=O`, the cytotoxicity call in experiment [1] and in experiment [2] was “inactive” throughout. In addition, the growth inhibition call in experiment [3] was “inactive”.

As to `C[C@@H]1CCCCO[C@@H](CN(C)C(=O)Cc2ccccc2)[C@H](C)CN([C@@H](C)CO)C(=O)c2cc(NC(=O)Nc3cccc4ccccc34)ccc2O1`, the cytotoxicity call in experiment [1] and in experiment [2] was “inactive” throughout. In experiment [3], the growth inhibition call was “inactive”.

For `CC(C)(C)OC(=O)C[C@H]1CC=CC[C@H](CC(=O)NCCO)C(=O)N[C@@H](Cc2c[nH]c3ccccc23)COC1=O`, the cytotoxicity call in experiment [1] and in experiment [2] was “inactive” in each case. For the same compound, the growth inhibition call in experiment [3] is “inactive”.

Turning to `C=CCSc1n[nH]c2nc(=O)cc(N)n12`, the cytotoxicity call in experiment [1] and in experiment [2] was “inactive” throughout. Moreover, the growth inhibition call in experiment [3] was “inactive”.

For the compound `CO[C@@H]1CN(C)C(=O)c2ccc(NS(=O)(=O)CC(F)(F)F)cc2OC[C@@H](C)N(C(=O)NC(C)C)C[C@H]1C`, the cytotoxicity call in experiment [1] and in experiment [2] was “inactive” throughout. Moreover, the growth inhibition call in experiment [3] was “inactive”.

With `C[C@@H]1CN([C@H](C)CO)C(=O)Cc2cc(NS(=O)(=O)c3cccs3)ccc2O[C@H]1CN(C)Cc1ccc(-c2ccccc2)cc1`, the cytotoxicity call in experiment [1] and in experiment [2] was “inactive” throughout. The growth inhibition call in experiment [3] is “inactive”.

Take `Cc1noc(C)c1NC(=O)Nc1cccc2c1O[C@@H](CN(C)C(=O)NC(C)C)[C@H](C)CN([C@@H](C)CO)C2=O`: the cytotoxicity call in experiment [1] and in experiment [2] was “inactive” in each case. In addition, in experiment [3], the growth inhibition call is “inactive”.

On to `NCCc1nc(-c2ccncc2)no1`, for which the cytotoxicity call in experiment [1] and in experiment [2] was “inactive” each time. In addition, the growth inhibition call in experiment [3] was “inactive”.

Consider `CC(C)NC(=O)Nc1ccc2c(c1)CC(=O)N([C@@H](C)CO)C[C@@H](C)[C@@H](CN(C)Cc1ccc(Oc3ccccc3)cc1)O2`, for which the cytotoxicity call in experiment [1] and in experiment [2] was “inactive” each time. Further, in experiment [3], the growth inhibition call is “inactive”.

On to `O=C(O)CCCCc1ccc(F)cc1`, for which the cytotoxicity call in experiment [1] and in experiment [2] was “inactive” throughout. Further, in experiment [3], the growth inhibition call is “inactive”.

Consider `C[C@@H]1CN([C@@H](C)CO)C(=O)c2cccc(NC(=O)CCCCCC(=O)Nc3ccccc3N)c2O[C@@H]1CN(C)Cc1ccc(C(F)(F)F)cc1`, for which the cytotoxicity call in experiment [1] and in experiment [2] was “inactive” each time. Moreover, the growth inhibition call in experiment [3] is “inactive”.

In the case of `C[C@@H]1CN([C@@H](C)CO)C(=O)c2cc(NC(=O)C3CCCCC3)ccc2O[C@H]1CN(C)Cc1ccc(Cl)c(Cl)c1`, the cytotoxicity call in experiment [1] and in experiment [2] was “inactive” in each case. The growth inhibition call in experiment [3] was “inactive”.

As to `C[C@H](CO)N1C[C@H](C)[C@@H](CN(C)S(=O)(=O)c2cn(C)cn2)OCCCC[C@H](C)Oc2ccc(NS(=O)(=O)c3cccs3)cc2C1=O`, the cytotoxicity call in experiment [1] and in experiment [2] was “inactive” in each case. Moreover, in experiment [3], the growth inhibition call is “inactive”.

As to `C[C@H](CO)N1C[C@H](C)[C@H](CN(C)CC2CCCCC2)OCCCC[C@H](C)Oc2ccc(NS(=O)(=O)c3ccc(F)cc3)cc2C1=O`, in experiment [1], the cytotoxicity call is “inactive”. For the same compound, the cytotoxicity call in experiment [2] is “active”. Also, the growth inhibition call in experiment [3] is “inactive”.

As for `C[C@H](CO)N1C[C@H](C)[C@H](CN(C)C(=O)CCCN(C)C)OCc2cn(nn2)CCCC1=O`, the cytotoxicity call in experiment [1] and in experiment [2] was “inactive” in each case. For the same compound, the growth inhibition call in experiment [3] is “inactive”.

Consider `C[C@H](CO)N1C[C@H](C)[C@@H](CN(C)CC2CC2)Oc2ccc(NS(=O)(=O)c3ccccc3)cc2CC1=O`, for which the cytotoxicity call in experiment [1] and in experiment [2] was “inactive” throughout. Also, in experiment [3], the growth inhibition call is “inactive”.

For the compound `C[C@@H]1CN([C@H](C)CO)C(=O)c2cc(C#Cc3cccnc3)cnc2O[C@@H]1CN(C)Cc1ccc(F)cc1`, the cytotoxicity call in experiment [1] and in experiment [2] was “inactive” each time. Moreover, in experiment [3], the growth inhibition call was “inactive”.

Consider `C[C@H](CO)N1C[C@H](C)[C@@H](CN(C)C)Oc2ccc(NS(=O)(=O)c3cn(C)cn3)cc2CC1=O`, for which the cytotoxicity call in experiment [1] and in experiment [2] was “inactive” in each case. Besides, in experiment [3], the growth inhibition call is “inactive”.

Regarding `C[C@H]1CCCCO[C@H](CN(C)C(=O)C2CCCCC2)[C@@H](C)CN([C@@H](C)CO)C(=O)c2cc(NC(=O)Nc3cccc4ccccc34)ccc2O1`, the cytotoxicity call in experiment [1] and in experiment [2] was “inactive” each time. In addition, in experiment [3], the growth inhibition call is “inactive”.

As to `CCOC(=O)/C=C/C(=O)N1CCC=CC1=O`, the cytotoxicity call in experiment [1] and in experiment [2] was “active” each time. For the same compound, the growth inhibition call in experiment [3] was “inactive”.

With `COc1ccc(NC(=O)Nc2ccc3c(c2)C(=O)N([C@H](C)CO)C[C@H](C)[C@@H](CN(C)S(=O)(=O)c2c(C)noc2C)O3)cc1`, the cytotoxicity call in experiment [1] and in experiment [2] was “inactive” each time. In addition, the growth inhibition call in experiment [3] is “inactive”.

Turning to `Cc1ccc(S[C@]2(C(=O)NCC(F)(F)F)CC(=O)N(C3CCCCC3)[C@@H]2c2ccc(CO)cc2I)cc1`, the cytotoxicity call in experiment [1] and in experiment [2] was “inactive” throughout. For the same compound, in experiment [3], the growth inhibition call is “inactive”.
